Data taken from PMC4336329 (PLoS ONE, 2015).
About 14,000 (4.5%) of roughly 310,000 compounds showed an effect of 50% or more. The effect is printed as a negative number. Some of the results follow.

Molecular target: human ether-à-go-go-related gene (hERG) potassium channel (human, UniProt Q12809)
Experiment: primary screen, population patch clamp on CHO cells stably expressing hERG
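Note: peak tail current of the secondary pulse compared with the same well before compound.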

Chain of human ether-à-go-go-related gene (hERG) potassium channel (Q12809 whole entry, looked up): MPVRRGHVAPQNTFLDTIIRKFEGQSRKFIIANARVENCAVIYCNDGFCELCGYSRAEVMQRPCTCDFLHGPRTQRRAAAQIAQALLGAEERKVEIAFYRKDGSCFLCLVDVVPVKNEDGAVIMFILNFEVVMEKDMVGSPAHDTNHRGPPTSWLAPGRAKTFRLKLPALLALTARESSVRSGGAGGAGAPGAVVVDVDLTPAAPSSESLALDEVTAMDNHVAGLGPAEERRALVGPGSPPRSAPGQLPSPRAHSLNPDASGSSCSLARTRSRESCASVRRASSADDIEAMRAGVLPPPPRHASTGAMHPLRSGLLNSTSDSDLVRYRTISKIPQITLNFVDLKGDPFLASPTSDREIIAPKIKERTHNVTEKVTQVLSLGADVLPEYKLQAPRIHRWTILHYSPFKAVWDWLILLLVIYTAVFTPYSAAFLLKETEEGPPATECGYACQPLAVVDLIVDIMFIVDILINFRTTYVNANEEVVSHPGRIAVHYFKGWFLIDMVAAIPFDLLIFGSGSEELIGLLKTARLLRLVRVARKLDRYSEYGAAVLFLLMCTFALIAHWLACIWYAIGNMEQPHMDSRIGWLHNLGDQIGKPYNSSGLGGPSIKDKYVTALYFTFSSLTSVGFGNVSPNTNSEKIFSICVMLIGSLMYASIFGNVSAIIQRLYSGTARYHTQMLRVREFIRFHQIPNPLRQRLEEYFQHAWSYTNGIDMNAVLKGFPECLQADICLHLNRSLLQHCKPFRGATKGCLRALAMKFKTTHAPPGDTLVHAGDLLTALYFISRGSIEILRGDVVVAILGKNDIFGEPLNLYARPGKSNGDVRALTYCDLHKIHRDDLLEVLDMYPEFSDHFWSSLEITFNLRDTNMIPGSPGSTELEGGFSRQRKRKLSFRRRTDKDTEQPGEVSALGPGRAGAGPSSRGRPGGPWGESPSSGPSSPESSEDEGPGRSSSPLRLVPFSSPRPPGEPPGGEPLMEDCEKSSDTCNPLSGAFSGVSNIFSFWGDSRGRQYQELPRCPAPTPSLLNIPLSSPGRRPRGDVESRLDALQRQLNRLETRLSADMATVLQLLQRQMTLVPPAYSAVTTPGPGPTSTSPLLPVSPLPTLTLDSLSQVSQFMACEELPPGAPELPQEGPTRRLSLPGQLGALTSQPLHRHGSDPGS

Compound | hERG current change (%, negative = inhibition) at 10uM [%]
Cn1ccnc1C1CCCCN1Cc1nc(-c2ccc3c(c2)OCO3)no1 (stereo not shown) | -7.65
CCCOc1ccc(C(O)C(CN2CCOCC2)c2ccccc2)cc1.Cl (stereo not shown) | 1.07
COc1cccc(NC(=O)CN(C)C(=O)CSc2ncnc3sc(C)c(C)c23)c1 | -15.5
O=C(CSc1nnc2n1CCCCC2)Nc1ccc(N2CCOCC2)cc1 | -3.81
COc1cccc(NC(=O)Nc2cc(C)ccc2OC)c1 | -3.39
Cc1ccc(C(=O)OC2CCOC2=O)cc1NC(=O)c1ccco1 (stereo not shown) | 0.0901
COc1cccc(N/C=C/C(=O)c2ccc(Br)cc2)c1 | 11.5
CCc1cccc2c(C(=O)CSc3nnc(C4CC4)o3)c[nH]c12 | -6.51
COc1ccc(CCNC(=S)N(C)C)cc1OC | 32.8
CCOC(=O)N(c1ccccc1)P1(=S)OCCO1 | 0.953
Cc1ccc(C(=O)OC/C(O)=C(\C#N)c2nc3ccccc3[nH]2)cc1S(=O)(=O)N1CCOCC1 | -8.52
Cc1nn(C)c(C)c1NC(=O)c1ccc(Cl)cc1 | 19
O=C(NC1CC(=O)N(c2ccc3c(c2)OCCO3)C1)N1CCC(O)CC1 (stereo not shown) | 9.14
CC1CCCCN1CCNC(=O)C1CCN(S(=O)(=O)c2cccc3cccnc23)CC1 (stereo not shown) | -6.04
C=CCn1c(SCc2c(C(=O)OC)sc(N)c2C(=O)OC)nnc1-c1ccc(Br)cc1 | -65.4
CCOC(=O)N1CCC(NC(=O)C2CCN(C(=O)c3cc4sccc4n3CC)CC2)CC1 | -5.09
CCC(C)NC(=O)c1cn(CC)c2cc(N3CCN(C)CC3)c(F)cc2c1=O (stereo not shown) | 2.37
CC1CCN(C(=S)NC(=O)c2ccco2)CC1 | 12.3
CC1CCCCC12NC(=O)N(CC(=O)N1CCN(Cc3ccc(C#N)cc3)CC1)C2=O (stereo not shown) | -15.1
COc1ccc(N2CC(C(=O)OCC(=O)c3ccc(C)cc3)CC2=O)cc1 (stereo not shown) | 13.9

Compound | hERG current change (%, negative = inhibition) at 10uM [%]
Oc1ccc(Br)cc1-c1cc(-c2ccccc2F)[nH]n1 | -1.3
COCCOC(=O)C1=C(N)Oc2c(c(=O)oc3ccccc23)C1c1ccncc1 (stereo not shown) | -22.9
O=C(C1CC1)N1CCc2cc(S(=O)(=O)NC3CCN(Cc4ccccc4)CC3)ccc21 | 4.07
COc1ccc(CCNC(=O)CNS(=O)(=O)c2ccc(N(C)C)c([N+](=O)[O-])c2)cc1OC | 7.98
O=c1c2[nH]c3cccc(Cl)c3c2ncn1CCN1CCCCC1 | -21.9
CN(C)c1ccc(C=NCC2COc3ccccc3O2)cc1 (stereo not shown) | 24.8
COc1ccc(Br)cc1/C=N/Nc1ccccn1 | 14.8
CCn1cc(C(=O)O)c(=O)c2cc(F)c(N3CCN(C(=S)NC(=O)c4ccccc4C)CC3)cc21 | -6.92
Cc1ccc(NC(=O)C2CCN(S(=O)(=O)c3ccc4c(c3)NC(=O)C(C)S4)CC2)cc1Cl (stereo not shown) | 9.89
CCOC(=O)C1=C(C)NC(=O)NC1c1cccc(OC)c1OCc1ccccc1Cl (stereo not shown) | -1.42
CC(C)=CCCC(C)CN1CCC(N2CCC(C(=O)N3CCOCC3)CC2)CC1 (stereo not shown) | -60.4
COc1cc(C2CC(=O)C=C(O)C2)cc(OC)c1OC (stereo not shown) | 27.1
CCn1c(=O)c(C(=O)NCCN2CCCCC2)c(O)c2ccccc21.Cl | -25.3
Cc1cc(C(=O)NCC(=O)OCC(=O)N2CCCCCC2)ccc1[N+](=O)[O-] | 10.1
Cc1ccccc1C(=O)NC1CCN(Cc2nnnn2C(C)(C)C)CC1 | 17.7
CC(=O)c1ccc(NC(=O)Nc2ccc(Cl)cc2)cc1 | 13.2
Nc1ncc(S(=O)(=O)c2ccc(Cl)cc2)c(N)n1 | -4.78
COc1cc(N=Cc2c(O)[nH]c3ccccc23)cc(OC)c1OC | 2.02
O=C(NCC1CCCO1)/C(=C\c1ccccc1F)NC(=O)c1ccccc1 (stereo not shown) | -8.01
O=C(Nc1ccccc1-c1ccccc1)C(=O)Nc1ccccc1-c1ccccc1 | 23.6

Compound | hERG current change (%, negative = inhibition) at 10uM [%]
CCOC(=O)N1CCN(C(=O)COc2ccccc2Cl)CC1 | -0.265
O=C1C=CC(O)(c2cc(=O)c3c(O)cc(O)cc3o2)C=C1 | 12.7
COC(=O)c1ccc(C(=O)NC2CCCN(Cc3ccc(Cl)cc3)C2)nc1 (stereo not shown) | -43.8
COC(=O)c1sccc1NC(=O)c1cc(OC)c(OC)c(OC)c1 | 3.09
CC1(c2nnc(Cc3ccccc3)o2)CC(c2ccc(Cl)cc2)=NO1 (stereo not shown) | -23.3
COc1cc(/C=N/n2c(COc3ccccc3)n[nH]c2=S)cc(Br)c1O | 22
COc1ccc(CC(=O)NNc2ncnc3c2cnn3-c2ccc(C)cc2)cc1OC | 10.5
Cc1ccn2c(-c3csc(NCc4ccco4)n3)c(C)nc2c1 | -64.9
CC1Cc2ccccc2N1C(=O)COC(=O)c1ccc(S(=O)(=O)N(C)C)cc1 (stereo not shown) | 12.4
CCCCNC(=O)Nc1c(C)cc(SC#N)cc1C | 21.6
N#C/C(=C\c1cccc(Br)c1)C(=O)N1CCCCC1 | -14.1
N=c1oc2ccc(Br)cc2cc1C(=O)NCc1ccccc1 | 14.5
CCCCCCCNc1cccc(C)c1 | 19.9
Nc1ccnn1Cc1ccc(Br)s1 | 11.3
Cc1cc(/C=N/NC(=O)CC2(C)OCCO2)c(C)n1-c1cc(Cl)cc(Cl)c1 | -5.75
OC(c1ccc2c(c1)OCO2)c1nccc2ccccc12 (stereo not shown) | -1.04
O=C(Nc1ccc2c(c1)OCO2)c1cccc(F)c1 | 15.3
Nc1cc(N2CCOCC2)c(Cl)cc1[N+](=O)[O-] | 8.17
